In PubChem BioAssay (NCI):
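48-hour exposure; five concentrations; linearly interpolated endpoints. GI50: concentration for 50% inhibition of growth. The concentration for full growth arrest is given as TGI.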

System: NCI-H322M lung
Test: NCI-60 cell line screen, 48 h

Row | Compound | GI50 [µM] | TGI [µM]
1 | CN(C)CCNc1ccc2ncc(C#Cc3cncc(C(=O)Nc4ccc(CN5CCN(C)CC5)c(C(F)(F)F)c4)c3)n2n1 | 1.31 | 4.26
2 | CN1C(=O)N(c2ccccc2)C2N=C(N/N=C/c3ccccc3)SC21 (centres undefined) | 5.88 | > 100
